Laboratory results reported in PubChem BioAssay AID485364 (National Center for Advancing Translational Sciences (NCATS), 2010).
Screen size: about 360,000 compounds; about 11,000 (3.1%) were called active. Inconclusive means that the source gave no clear call. Such entries were picked first, then a sample of the others. Calls follow the shape of the dose curve; as a rule, active = well fitted inhibition curve with a large enough effect; inconclusive = small, poorly fitted or top-dose-only effect; inactive = no such curve, though single readings can be large or run the other way. Potencies of inconclusive entries are left out as doubtful fits. Some compounds were tested as several samples or in several runs, with calls that do not always agree.

These compounds were tested against Schistosoma mansoni thioredoxin glutathione reductase (TGR) (UniProt Q962Y6) (assay: qHTS Assay for the Inhibitors of Schistosoma Mansoni Peroxiredoxins). Conditions: purified TGR, DTNB reduction, TNB absorbance 405 nm; activity change, negative = inhibition: at 114 µM (top of the series) unless noted.
Summary of the method: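 TGR 20 nM + NADPH 100 uM (dispensed conc.), cpd preinc 15 min RT; start with NADPH (500 uM addition) then DTNB (15 mM addition). Kinetic TNB absorbance, 405 nm filter. Four-parameter Hill fit across titration.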
% is scaled to controls: 0 for no effect and ±100 for the full control effect; potency is read from the fitted curve at half-maximal effect; tags tell the direction and shape of the fitted curve.
Also: nearly all actives have a fitted effect of over 60% in size.

SMILES | Potency | activity change, negative = inhibition
COCc1ccc(CN2CCC(C(=O)Nc3cccc(-c4cccc(Cl)c4)c3)CC2)o1 | inconclusive [inhibitor, partial curve] | –
O=c1c2ccccc2nc2n1C(CSCc1ccc(Cl)cc1Cl)CS2 (centres undefined) | inconclusive [inhibitor, full curve, poor fit] | –
CCc1ccc(N2NC(=O)/C(=C/C=C/c3ccco3)C2=O)cc1 | inconclusive [inhibitor, partial curve] | –
O=[N+]([O-])c1ccc(CN2CCN(c3ccc(Cl)cc3)CC2)o1 | inconclusive [inhibitor, partial curve] | –
COc1ccc(C(c2nnnn2CCc2ccccc2)N2CCN(C3CCCC3)CC2)cc1OC (centres undefined) | inactive | –
CCCCN(C)C1=CC2=CC(=C(C#N)C#N)CCC2CC1 (centres undefined) | inconclusive [inhibitor, partial curve, poor fit] | –
CCc1cccc(CC)c1NC(=S)NCCc1ccc(O)c(O)c1 | inconclusive [inhibitor, full curve] | –
CCN1CCN(c2cc(C)c3cc(NC(=O)c4cccc(Cl)c4)ccc3n2)CC1 | inactive | –
Cc1ccc(C(=S)NCS(=O)(=O)c2ccc(C)cc2)cc1 | active: 2.82 µM | –
Cc1cccc(-c2oc3ccccc3c2C#CCCCCO)c1 | inconclusive [inhibitor, partial curve] | –
Fc1ccc(OCc2nc(-c3ccc(Br)o3)no2)c(F)c1 | inconclusive [inhibitor, partial curve] | –
O=C(COC(=O)c1ccc(Br)c(S(=O)(=O)N2CCOCC2)c1)NCC1CCCO1 (centres undefined) | inconclusive [inhibitor, single point] | –
COc1cc(OC)cc(C(=O)OCC(=O)NCc2ccco2)c1 | inconclusive [inhibitor, partial curve] | –
CCOc1cccc(CNCCO)c1OCc1ccc(Cl)cc1 | inconclusive [inhibitor, single point] | –
CN(C)/C=N/c1nc2ccc3c(c2s1)CCCC3 | inconclusive [inhibitor, full curve, poor fit] | –
O=C(/C=C/c1ccccc1)CC(O)(c1ccccc1)C(F)(F)C(F)F (centres undefined) | active: 25.1 µM | –
COCCCNC(=S)NNC(=O)c1ccc2c(c1)OCO2 | inconclusive [inhibitor, single point] | –
COc1ccc(NC(=O)CN(C)C(=O)c2cccc(S(=O)(=O)N3CCN(C)CC3)c2)cc1 | active: 89.1 µM | –
COc1ccc(COCCN2CCN(S(=O)(=O)c3ccccc3)CCC2=O)cc1 | inactive | –
COc1ccc(OC)c(S(=O)(=O)N(C)CC(=O)N2CCCCC2)c1 | inactive | –
COc1ccc(-c2nnc(SCC(=O)N3CCCC3)o2)c(OC)c1 | inactive | –
Cc1nc2ccccc2c(=O)n1/N=C/c1ccc([N+](=O)[O-])o1 | active: 14.1 µM | –
Cc1ccc(OC(=O)c2ccc([N+](=O)[O-])cc2Cl)cn1 | inconclusive [inhibitor, partial curve] | –

SMILES | Potency | activity change, negative = inhibition
Cn1nnnc1Sc1ncnc2scc(-c3cccs3)c12 | active: 3.55 µM | –
O=C(Nc1nnc(S(=O)(=O)N2CCCCC2)s1)c1ccc(F)cc1 | inactive | –
Cc1nn(CC(=O)Nc2ccc(Cl)cc2)c(=O)c2cc(-c3ccccc3)nn12 | inactive | –
Cc1ccc(CNC(=O)Cn2cc(S(=O)(=O)Cc3cccc(Cl)c3)c3ccccc32)cc1 | inactive | –
COC(=O)[C@H](C)NC(=O)Nc1ccc(OC(F)(F)F)cc1 | inconclusive [inhibitor, partial curve, poor fit] | –
c1ccc(-n2c(-c3ccncc3)nnc2-c2ccco2)cc1 | inconclusive [inhibitor, single point] | –
Cc1cc(C)c(C#N)c(N2CCOCC2)n1 | inconclusive [inhibitor, single point] | –
O=c1oc2ccc3ccccc3c2cc1-c1nnc(Nc2ccc(Cl)cc2Cl)s1 | inactive | –
O=C1C(Cc2ccccc2)Nc2ncnc(N3CCc4ccccc4C3)c2N1Cc1ccc(Br)cc1 (centres undefined) | inactive | –
C=CCn1c(CNC(=O)c2cccs2)nnc1SCC(=O)c1ccc(Br)cc1 | inconclusive [inhibitor, partial curve] | –
CCCNC(=O)C12CCC(C)(c3nc4cc(C)c(C)cc4nc31)C2(C)C (centres undefined) | inactive | –
Cc1cccc(-n2c(C)nc3c(cnn3-c3ccc(F)cc3)c2=O)c1 | inactive | –
Cc1ccc([C@@H]2[C@@H]3C(=O)N(c4ccccc4)C(=O)[C@@H]3[C@]3(C)C(=O)N(Cc4ccccn4)CC(=O)N23)o1 | – | inconclusive: -58.5% [inhibitor]
CC1CCN(CC(O)COc2ccc(F)cc2)CC1 (centres undefined) | inactive | –
NC(=O)Cc1ccc(C(=O)c2ccccc2)s1 | inactive | –
Cc1c(C(=O)NCc2ccoc2)oc2ccc3c(c12)C(=O)CC(C)(C)O3 | inconclusive [inhibitor, partial curve, poor fit] | –
COc1ccc(C(C2C(=O)CC(C)(C)CC2=O)C2C(=O)CC(C)(C)CC2=O)cc1COCC(F)(F)F | active: 39.8 µM | –
COc1ccc2c(c1)c1c(c(=O)n(-c3cccc(Cl)c3)c(=O)n1CC(=O)NCC1CCCO1)n2C (centres undefined) | inactive | –
CC(=O)N(CCC(c1ccco1)C(C)C)Cc1ccc(OC(C)C)cc1 (centres undefined) | inconclusive [inhibitor, partial curve] | –
O=C(Nc1cccc(S(=O)(=O)N2CCCC2)c1)c1ccncc1 | inconclusive [inhibitor, full curve, poor fit] | –
COC(=O)C(OC(=O)c1ccccc1)C(C)Br (centres undefined) | inconclusive [inhibitor, partial curve] | –
Cc1csc(NC(=O)CSc2nnc(Cc3cccn3C)n2-c2ccc(F)cc2)n1 | inconclusive [inhibitor, partial curve] | –
COc1cc(CN2CCc3ccc(NC(=O)CCc4ccccc4OC)cc3C2)ccc1O | active: 12.6 µM | –

SMILES | Potency | activity change, negative = inhibition
CCN(CC)S(=O)(=O)c1ccc2c(c1)nc(-c1ccccn1)n2C | inconclusive [inhibitor, partial curve] | –
Cc1ncc(CO)c2c1Oc1nc(-c3ccccc3)nc(SCC(=O)N3CCCCC3)c1C2 | active: 31.6 µM | –
C[n+]1cn(Cc2cc(Cl)ccc2OC(F)F)c2ccccc21 | inconclusive [inhibitor, partial curve] | –
O=c1cc(CSc2ccccc2)[nH]c2ccccc12 | inactive | –
CC(=C1C(=O)c2ccccc2C1=O)N1CCc2ccccc2C1 | inconclusive [inhibitor, full curve] | –
C#CCOCCOCCOCCNc1nc(N2CCN(C(=O)[C@H](CCC(=O)O)n3cc(C(N)Cc4ccc(O)cc4)nn3)CC2)nc(N2CCN(C(=O)[C@H](Cc3ccc(O)cc3)n3cc(C(N)[C@H](C)CC)nn3)CC2)n1 (some centres undefined) | inconclusive [inhibitor, full curve, poor fit] | –
CCCC(=O)Nc1ccc2c(c1)nc1n2CCN(CCOC)C1 | active: 20 µM | –
CCN(CC)S(=O)(=O)c1ccc2c(c1)N(CC(=O)NCc1ccco1)C(=O)CO2 | inconclusive [inhibitor, partial curve] | –
COc1ccc(C(=O)NC(=S)Nc2ccc(CN3CCOCC3)cc2)cc1OC | active: 20 µM | –
COc1ccc(-c2n(CC(=O)OC3CC(C)CCC3C(C)C)c3ccccc3[n+]2C)cc1 (centres undefined) | inconclusive [inhibitor, single point] | –
Cc1ccc(S(=O)(=O)N2CCC(C(=O)N[C@@H](Cc3ccccc3)C(=O)O)CC2)cc1 | active: 79.4 µM | –
CC(C)c1nc(CNC(=O)CC2C(=O)NCCN2Cc2ccc(F)cc2Cl)cs1 (centres undefined) | inconclusive [inhibitor, partial curve, poor fit] | –
Cc1cc(Nc2cccc(Br)c2)n2c(nc3ccccc32)c1C#N | inactive | –
COc1ccc(CC2c3cc(OC)c(OC)cc3CC[N+]2(C)CCC(=O)OCCCCCOC(=O)CC[N+]2(C)CCc3cc(OC)c(OC)cc3C2Cc2ccc(OC)c(OC)c2)cc1OC (centres undefined) | inconclusive [inhibitor, partial curve] | –
COc1ccc(N=Cc2[nH]c3ccccc3c2O)cc1 | inconclusive [inhibitor, partial curve] | –
O=C(CSCc1ccc(F)cc1)NCc1ccco1 | inconclusive [inhibitor, partial curve] | –
Cc1cc(=O)oc(C)c1C(=O)NCCN1CCOCC1 | inconclusive [inhibitor, partial curve] | –
O=C(C1CC1)N1CCN(C(c2ccccc2)c2ccccc2)CC1 | inconclusive [inhibitor, partial curve] | –
Cc1ccnc(NS(=O)(=O)c2ccc(NC(=O)c3ccc([N+](=O)[O-])s3)cc2)n1 | inconclusive [inhibitor, partial curve] | –
CCCCOC(=O)Nc1nnc(/C=C/c2ccc(OC)cc2)s1 | inactive | –
COC(=O)C1=CN(Cc2cccs2)C=C(C(=O)OC)C1c1cccc(OC)c1OC | inconclusive [inhibitor, full curve, poor fit] | –
CCOC(=O)[C@H]1[C@H]2COc3ccc(Cl)cc3[C@@H]2N2C(=O)CNC(=O)[C@@]12C | inconclusive [inhibitor, partial curve] | –
O=C1c2ccccc2C(=O)N1Cc1nc(-c2ccccc2)no1 | inconclusive [inhibitor, single point] | –
